Among all 370,000 compounds or so, about 150 (0.041%) were called active. The shares of active, inactive and inconclusive entries below differ from those in the screen. Calls follow the shape of the dose curve; as a rule, active = well fitted inhibition curve with a large enough effect; inconclusive = small, poorly fitted or top-dose-only effect; inactive = flat fitted curve, though single readings scatter. No potency is given beside an inconclusive call; the fits are too rough.
What follows are compounds tested against Beta-lactamase (Escherichia coli (strain K12)) (UniProt P00811) (assay: qHTS Inhibitors of AmpC Beta-Lactamase (assay with detergent)). Conditions: AmpC hydrolysis of nitrocefin, absorbance 480 nm, 0.01% Triton; activity change, negative = inhibition: at 114 µM (top of the series).
Chain of UniProt P00811 (P00811 whole entry, looked up): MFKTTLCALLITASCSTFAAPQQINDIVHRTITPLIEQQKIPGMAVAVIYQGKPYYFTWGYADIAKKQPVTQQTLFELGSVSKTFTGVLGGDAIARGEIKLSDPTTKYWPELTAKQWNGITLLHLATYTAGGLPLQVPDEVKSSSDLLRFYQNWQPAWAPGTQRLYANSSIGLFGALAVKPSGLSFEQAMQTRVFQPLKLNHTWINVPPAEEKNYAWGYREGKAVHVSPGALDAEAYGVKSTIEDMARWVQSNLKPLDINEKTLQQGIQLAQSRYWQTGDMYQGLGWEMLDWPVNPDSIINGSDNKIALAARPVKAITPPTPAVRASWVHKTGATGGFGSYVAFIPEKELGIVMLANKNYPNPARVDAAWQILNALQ
In short: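 20 mM phosphate pH 7.0 + 0.01% (detergent screen) or 0.0001% Triton X-100; 5.3 nM AmpC reagent; cpd preinc 15 min RT; nitrocefin (800 uM stock) to start; A480 q20 s × 4 min; Activity was normalised to no-enzyme and no-compound control wells.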
`COc1ccc(N2Cc3ccccc3C2=O)cc1` was tested, and the “activity change, negative = inhibition” value was inactive: -4.85%. For `C[C@H](NC(=O)Nc1ccc2c(c1)OCCO2)C(=O)O`, the Potency was inconclusive [inhibitor, full curve, poor fit]. With `COc1ccc(OC)c(S(=O)(=O)N2CCN(c3ncccn3)CC2)c1` the “activity change, negative = inhibition” value was inactive: -2.71%. `CCOc1ccc(NC(=O)c2cc3c(C)nc4ccccc4c3o2)cc1` was tested, and the Potency was inconclusive [inhibitor, full curve, poor fit]. For `O=C(Oc1ccc(/C=N/O)cc1)c1ccccc1Cl`, the “activity change, negative = inhibition” value was inactive: -3.7%. For `COc1ccc(N2C(=O)C(C)C(Cc3ccc(C)cc3)C2=O)cc1` (stereo not drawn), the Potency was inconclusive [inhibitor, full curve, poor fit]. In the case of `COc1cc(N/C=C2\CC(=O)NC(C)=C2C#N)cc(OC)c1OC`, the Potency is reported as inconclusive [inhibitor, full curve, poor fit]. For `COc1ccccc1CNC(=O)c1sccc1C`, the Potency was inconclusive [inhibitor, partial curve, poor fit]. In the case of `COC(=O)c1sccc1NC(=O)Nc1ccc(F)cc1F`, the Potency is reported as inconclusive [inhibitor, full curve, poor fit]. For `O=c1c2c3c(sc2ncn1/N=C/c1cccnc1)CCCC3`, the “activity change, negative = inhibition” value was inactive: 0.181%. For `Cc1cccc(C)c1-n1c(C)nn(CC2CC2)c1=O`, the Potency was inconclusive [inhibitor, full curve, poor fit]. `Cc1ccc(NC(=O)C2CC(=O)Nc3ncnn32)c(C)c1` (stereo not drawn) was tested, and the Potency was inconclusive [inhibitor, partial curve]. In the case of `CC(=O)Oc1cccc(C2C3=C(CC(C)(C)CC3=O)Nc3ccccc3N2C(C)=O)c1` (stereo not drawn), the Potency is reported as inconclusive [inhibitor, full curve, poor fit]. `CCN(C(=O)C1CCN(S(=O)(=O)c2c(C)noc2/C=C/c2ccc(C)cc2)CC1)c1cccc(C)c1` was tested, and the “activity change, negative = inhibition” value was inactive: 25.7%. In the case of `CN(C(=O)c1cnc(N2CCN(c3ncccn3)CC2)c2ccccc12)c1ccc(Cl)cc1`, the “activity change, negative = inhibition” value is reported as inactive: 3.82%. For `Nn1c(SCc2ccccc2F)nnc1-c1cccnc1`, the “activity change, negative = inhibition” value was inactive: -0.773%. For `COc1cccc(NC(=O)c2nnn(Cc3ccc(Br)cc3F)c2N)c1`, the Potency was inconclusive [inhibitor, full curve, poor fit]. `COc1ccc2[nH]c3nc(SCC(=O)Nc4cccc(NC(C)=O)c4)nnc3c2c1` was tested, and the Potency was inconclusive [inhibitor, full curve]. For `CCN(C(=O)[C@@H]1CCCN1C(=O)c1cccs1)c1nc2cc(Cl)ccc2s1`, the Potency was inconclusive [inhibitor, partial curve]. For `Cc1ccc(NC(=O)c2ccc(NCCCN3CCOCC3)c([N+](=O)[O-])c2)cc1Cl`, the Potency was inconclusive [inhibitor, full curve, poor fit]. With `COc1cc(-c2[nH]nc3c2C(c2ccco2)C(C#N)=C(N)O3)cc(OC)c1OC` (stereo not drawn) the “activity change, negative = inhibition” value was inactive: 5.15%. In the case of `COc1ccc(-n2ccnc(NCCc3ccccc3)c2=O)cc1OC`, the “activity change, negative = inhibition” value is reported as inactive: -2.81%. In the case of `CCOP(=O)(c1ccccc1)C(O)c1ccc([N+](=O)[O-])cc1` (stereo not drawn), the Potency is reported as inconclusive [inhibitor, single point]. For `Cc1oc(-c2ccccc2Cl)nc1CSCC(=O)NC1CCCC1`, the Potency was inconclusive [inhibitor, full curve, poor fit]. For `O=C1OC(Nc2ccc(F)c([N+](=O)[O-])c2)c2ccccc21` (stereo not drawn), the “activity change, negative = inhibition” value was inactive: 7.85%. For `O=C(CCS(=O)(=O)c1ccccc1)N(CCCN1CCOCC1)c1nc2c(F)cccc2s1`, the “activity change, negative = inhibition” value was inactive: -2.19%. In the case of `O=c1[nH]c(O)c(/C=C2/C=CC(c3cc(Cl)ccc3Cl)=N2)c(=O)[nH]1`, the “activity change, negative = inhibition” value is reported as inactive: 0.664%. With `COc1ccc(OC)c(NC2c3ncccc3C(=O)N2Cc2ccco2)c1` (stereo not drawn) the Potency was inconclusive [inhibitor, full curve, poor fit]. For `CCC(=O)c1ccc(OC(=O)Cc2ccc(OC)cc2)cc1`, the “activity change, negative = inhibition” value was inactive: -9.05%. For `Cc1ccnc(NC(=O)CC(NC(=O)c2ccccc2Cl)c2ccccc2)c1` (stereo not drawn), the Potency was inconclusive [inhibitor, partial curve, poor fit]. In the case of `COc1ccccc1NC(=O)Nc1ccnn1C1CCCCC1`, the Potency is reported as inconclusive [inhibitor, full curve, poor fit]. `COc1cccc(CNC(=O)COC(=O)c2cc([N+](=O)[O-])ccc2N2CCCC2)c1` was tested, and the Potency was inconclusive [inhibitor, full curve, poor fit]. In the case of `COc1ccc(CSC2=NCCN2)cc1Cl`, the Potency is reported as inconclusive [inhibitor, full curve, poor fit]. With `CCOC(=O)C1=C(C)Nc2ncnn2C1c1c[nH]c2ccccc12` (stereo not drawn) the Potency was inconclusive [inhibitor, single point]. In the case of `O=C(Nc1ccccc1)N1CCN(c2nc3ccccc3s2)CC1`, the Potency is reported as inconclusive [inhibitor, single point]. With `COc1cccc(NC(=S)N2CCN(c3ccc([N+](=O)[O-])cc3)CC2)c1` the Potency was inconclusive [inhibitor, single point]. In the case of `CCOC(=O)N1CCN(c2c(Nc3cc(C)[nH]n3)c(=O)c2=O)CC1`, the Potency is reported as inconclusive [inhibitor, full curve, poor fit]. With `COC(=O)c1ccc(NC(=O)C2CCN(S(C)(=O)=O)CC2)cc1` the Potency was inconclusive [inhibitor, partial curve, poor fit]. With `COc1cccc(NC(=O)c2c(F)cccc2F)c1` the Potency was inconclusive [inhibitor, partial curve, poor fit]. With `CSc1ncc2c(n1)-c1ccccc1N(Cc1ccccc1)S2(=O)=O` the Potency was inconclusive [inhibitor, partial curve]. With `COCc1ccc(C(=O)NC2CCCc3c2cnn3-c2ccc(C)c(C)c2)o1` (stereo not drawn) the Potency was inconclusive [inhibitor, full curve, poor fit]. `Cn1c(/N=C/c2c[nH]c3ccccc23)nc2ccccc21` was tested, and the Potency was inconclusive [inhibitor, full curve, poor fit]. For `Cc1nnc(SCC(=O)c2c(N)n(C)c(=O)n(C)c2=O)[nH]c1=O`, the Potency was inconclusive [inhibitor, full curve, poor fit]. With `CN1C(=O)CC2(CC(=O)N(Cc3ccccc3)C2)C1=O` (stereo not drawn) the “activity change, negative = inhibition” value was inactive: -0.927%. In the case of `C/C(CC(=O)Nc1ccc(N(C)C)cc1)=N\NC(=O)c1cnccn1`, the Potency is reported as inconclusive [inhibitor, full curve, poor fit]. For `CN1C(N)=NC(=O)/C1=C/c1ccc(OC(F)(F)F)cc1`, the Potency was inconclusive [inhibitor, full curve, poor fit]. In the case of `COc1ccc(CCNC(=O)Cn2c(=O)[nH]c3ccsc3c2=O)cc1OC`, the Potency is reported as inconclusive [inhibitor, partial curve]. In the case of `CCn1c(=O)c2cc(C(=O)N(C)c3ccccc3F)sc2c2ccccc21`, the “activity change, negative = inhibition” value is reported as inactive: 8.57%. In the case of `Cc1ccc(NC(=O)CSc2nnc(N)s2)cc1S(=O)(=O)N1CCOCC1`, the Potency is reported as inconclusive [inhibitor, single point]. With `Cc1ccc(-c2ccc(OC(=O)c3ccc(=O)[nH]c3)c(C)c2)cc1` the Potency was inconclusive [inhibitor, full curve, poor fit]. In the case of `O=C(NC1C2CC3CC(C2)CC1C3)C1CCCCC1` (stereo not drawn), the “activity change, negative = inhibition” value is reported as inactive: -13.5%. In the case of `O=C(Nc1nnc(Cc2c[nH]c3ccccc23)s1)c1ccc(Cl)cc1Cl`, the Potency is reported as inconclusive [inhibitor, full curve]. `CCOC(=O)C1CCN(C(=O)c2c(C)oc3c2C(=O)c2ccccc2C3=O)CC1` was tested, and the Potency was inconclusive [inhibitor, partial curve, poor fit]. For `COc1ccc(CC(=O)Nc2cc(C)c3c(=O)oc4ccccc4c3n2)cc1`, the Potency was inconclusive [inhibitor, full curve]. For `Cc1ccc2c(Cl)cc(Cl)c(OCC(=O)Nc3cccc(S(=O)(=O)N(C)C)c3)c2n1`, the “activity change, negative = inhibition” value was inactive: -9.14%. `COc1ccc(CCNC(=S)NC(=O)c2ccccc2)cc1C` was tested, and the “activity change, negative = inhibition” value was inactive: -5.65%. For `Cc1cc(C)c(S(=O)(=O)N2CCCC2=O)c(C)c1N(C)S(C)(=O)=O`, the Potency was inconclusive [inhibitor, full curve, poor fit]. `CC(NCC(=O)Nc1ccccc1C(=O)NC1CC1)c1cccc(Cl)c1` (stereo not drawn) was tested, and the Potency was inconclusive [inhibitor, full curve, poor fit]. For `CC(C)C(=O)N=c1sc2cc(F)cc(F)c2n1C`, the Potency was inconclusive [inhibitor, full curve, poor fit]. In the case of `Cc1ccccc1NC(=O)/C(C#N)=C/c1ccc(Cl)cc1Cl`, the “activity change, negative = inhibition” value is reported as inactive: -0.812%. `O=C(COC(=O)/C=C/c1ccccc1)Nc1cccnc1Cl` was tested, and the Potency was inconclusive [inhibitor, full curve, poor fit]. For `CN(c1ccc(C(=O)N2CCN(Cc3ccccc3)CC2)cc1)S(=O)(=O)c1ccccc1`, the “activity change, negative = inhibition” value was inactive: -17.1%. For `Cc1ccc2oc(=O)c3cnn(CC(=O)NC4CCN(Cc5ccccc5)CC4)c3c2c1`, the “activity change, negative = inhibition” value was inactive: -6.16%. In the case of `COCCNC(=O)CN1C(=O)CSc2ncccc21`, the Potency is reported as inconclusive [inhibitor, full curve, poor fit]. `Cc1cc(C(=O)Nc2cccc([N+](=O)[O-])c2)c(C)o1` was tested, and the Potency was inconclusive [inhibitor, partial curve]. With `Cc1c(F)cccc1NC(=O)c1ccc2c(c1)CCN2S(C)(=O)=O` the “activity change, negative = inhibition” value was inactive: 0.981%. With `CC(C)C[C@H](NC(=O)N1CC(=O)Nc2ccccc21)C(=O)N[C@@H](Cc1ccccc1)C(=O)O` the Potency was inconclusive [inhibitor, full curve, poor fit]. In the case of `COc1ccccc1N1CCN(C(=O)Cn2nnc(-c3cccs3)n2)CC1`, the Potency is reported as inconclusive [inhibitor, partial curve].

Reference: PubChem BioAssay AID485294 (National Center for Advancing Translational Sciences (NCATS), 2010)
Also: nearly all actives have a fitted effect of over 25% in size.
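For activity change, negative = inhibition in this document: 0% = no-compound wells and -100% = no-enzyme wells.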
Potency is read from the fitted curve at half-maximal effect; tags tell the direction and shape of the fitted curve.
